Data taken from patent US20130164251A1 (JIANGSU T MAB BIOPHARMA, published 2013).

T1: G-CSF receptor G-CSFR (R & D company, Item No. 381GR/CF) (UniProt Q99062 25-621, limits assumed)
T1 construct: Bought reagent, amine-coupled to a CM5 chip; also called the receptor
T1 sequence (looked up): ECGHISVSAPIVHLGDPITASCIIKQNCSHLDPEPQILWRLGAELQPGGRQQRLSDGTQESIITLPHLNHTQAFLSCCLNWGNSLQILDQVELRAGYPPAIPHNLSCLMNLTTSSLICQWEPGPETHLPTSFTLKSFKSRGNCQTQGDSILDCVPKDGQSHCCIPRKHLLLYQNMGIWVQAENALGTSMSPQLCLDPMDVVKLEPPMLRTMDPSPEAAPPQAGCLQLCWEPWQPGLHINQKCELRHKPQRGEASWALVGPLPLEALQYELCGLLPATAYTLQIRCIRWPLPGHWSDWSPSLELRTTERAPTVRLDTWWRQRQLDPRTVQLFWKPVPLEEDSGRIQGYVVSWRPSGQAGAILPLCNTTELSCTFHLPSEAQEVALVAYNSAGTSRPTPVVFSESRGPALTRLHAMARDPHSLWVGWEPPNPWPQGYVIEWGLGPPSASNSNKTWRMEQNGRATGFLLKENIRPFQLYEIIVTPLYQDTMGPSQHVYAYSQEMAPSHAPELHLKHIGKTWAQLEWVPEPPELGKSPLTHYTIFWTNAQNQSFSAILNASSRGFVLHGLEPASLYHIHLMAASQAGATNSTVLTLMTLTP


Biological target: T1, G-CSF receptor G-CSFR (R & D company, …)
Experiment: SPR (Biacore 3000), G-CSFR amine-coupled to CM5 chip, 1:1 Langmuir fit
Method: The receptor G-CSFR (R & D company, Item No. 381GR/CF) was coupled to FC₄ cell of a CM5 chip by using an amine coupling method in Biacore® 3000 control software Wizard. HBS-P buffer (10 mM HEPES, 150 mM NaCl, and 0.005% (v/v) surfactant P20, pH 7.4) was used as the working buffer, and 1 mg/mL of G-CSFR was diluted with 10 mM NaAC (pH 4.5) to a final concentration of 20 μg/mL. A 1:1 mixture of 0.2 M EDC and 50 mM NHS was injected by flowing through the surface of the chip at a rate of 10 μL/min, G-CSFR solution was injected, then 1 M ethanolamine (pH 8.5) was injected for 7 min to block the activated chip surface.
rHSA/mG-CSF and G-CSF standards were quantitatively diluted with a HBS-P buffer, and a kinetic test was conducted following a kinetic analysis Wizard in Biacore® 3000 control software. All the samples were injected at the flow rate of 30 μL/min, and the injection time of 3 min. After 5 min of disassociation, 50 mM NaOH, 1 M NaCL, and HBS-P buffer were respectively injected for 15 s and 60 s at a flow rate of 100 μL/min for regeneration. The obtained data was fitted using a 1:1 Langmuir binding model in Biacore 3000 analysis software, to obtain exact kinetic constants: […]

Row | Kd | Binder
1 | 4.8 nM | rHSA/G-CSF mutant L15I (ligand, expressed in Pichia pastoris) [not shown - about 600 residues]TPLGPASSLPQSFLIKCLEQVRKIQGDGAALQEKLCATYKLCHPEELVLLGHSLGIPWAPLSSCPSQALQLAGCLSQLHSGLFLYQGLLQALEGISPELGPTLDTLQLDVADFATTIWQQMEELGMAPALQPTQGAMPAFASAFQRRAGGVLVASHLQSFLEVSYRVLRHLAQP
2 | 12.5 nM | rHSA/G-CSF mutant L35I (ligand, expressed in Pichia pastoris) [not shown - about 600 residues]TPLGPASSLPQSFLLKCLEQVRKIQGDGAALQEKICATYKLCHPEELVLLGHSLGIPWAPLSSCPSQALQLAGCLSQLHSGLFLYQGLLQALEGISPELGPTLDTLQLDVADFATTIWQQMEELGMAPALQPTQGAMPAFASAFQRRAGGVLVASHLQSFLEVSYRVLRHLAQP
3 | 1.6 nM | rHSA/G-CSF mutant P44K (ligand, expressed in Pichia pastoris) [not shown - about 600 residues]TPLGPASSLPQSFLLKCLEQVRKIQGDGAALQEKLCATYKLCHKEELVLLGHSLGIPWAPLSSCPSQALQLAGCLSQLHSGLFLYQGLLQALEGISPELGPTLDTLQLDVADFATTIWQQMEELGMAPALQPTQGAMPAFASAFQRRAGGVLVASHLQSFLEVSYRVLRHLAQP
4 | 1.4 nM | rHSA/G-CSF mutant L124I (ligand, expressed in Pichia pastoris) [not shown - about 600 residues]TPLGPASSLPQSFLLKCLEQVRKIQGDGAALQEKLCATYKLCHPEELVLLGHSLGIPWAPLSSCPSQALQLAGCLSQLHSGLFLYQGLLQALEGISPELGPTLDTLQLDVADFATTIWQQMEEIGMAPALQPTQGAMPAFASAFQRRAGGVLVASHLQSFLEVSYRVLRHLAQP
5 | 25.5 nM | rHSA/G-CSF mutant L35I + K40H (ligand, expressed in Pichia pastoris) [not shown - about 600 residues]TPLGPASSLPQSFLLKCLEQVRKIQGDGAALQEKICATYHLCHPEELVLLGHSLGIPWAPLSSCPSQALQLAGCLSQLHSGLFLYQGLLQALEGISPELGPTLDTLQLDVADFATTIWQQMEELGMAPALQPTQGAMPAFASAFQRRAGGVLVASHLQSFLEVSYRVLRHLAQP
6 | 1.8 nM | rHSA/G-CSF mutant Q119N (ligand, expressed in Pichia pastoris) [not shown - about 600 residues]TPLGPASSLPQSFLLKCLEQVRKIQGDGAALQEKLCATYKLCHPEELVLLGHSLGIPWAPLSSCPSQALQLAGCLSQLHSGLFLYQGLLQALEGISPELGPTLDTLQLDVADFATTIWNQMEELGMAPALQPTQGAMPAFASAFQRRAGGVLVASHLQSFLEVSYRVLRHLAQP
7 | 5.9 nM | rHSA/G-CSF mutant Q70K (ligand, expressed in Pichia pastoris) [not shown - about 600 residues]TPLGPASSLPQSFLLKCLEQVRKIQGDGAALQEKLCATYKLCHPEELVLLGHSLGIPWAPLSSCPSQALKLAGCLSQLHSGLFLYQGLLQALEGISPELGPTLDTLQLDVADFATTIWQQMEELGMAPALQPTQGAMPAFASAFQRRAGGVLVASHLQSFLEVSYRVLRHLAQP
8 | 1.5 nM | rHSA/G-CSF mutant P5R (ligand, expressed in Pichia pastoris) [not shown - about 600 residues]TPLGRASSLPQSFLLKCLEQVRKIQGDGAALQEKLCATYKLCHPEELVLLGHSLGIPWAPLSSCPSQALQLAGCLSQLHSGLFLYQGLLQALEGISPELGPTLDTLQLDVADFATTIWQQMEELGMAPALQPTQGAMPAFASAFQRRAGGVLVASHLQSFLEVSYRVLRHLAQP
9 | 6.8 nM | rHSA/G-CSF mutant Q90K (ligand, expressed in Pichia pastoris) [not shown - about 600 residues]TPLGPASSLPQSFLLKCLEQVRKIQGDGAALQEKLCATYKLCHPEELVLLGHSLGIPWAPLSSCPSQALQLAGCLSQLHSGLFLYQGLLKALEGISPELGPTLDTLQLDVADFATTIWQQMEELGMAPALQPTQGAMPAFASAFQRRAGGVLVASHLQSFLEVSYRVLRHLAQP
10 | 97.5 nM | rHSA/G-CSF mutant Q20N (ligand, expressed in Pichia pastoris) [not shown - about 600 residues]TPLGPASSLPQSFLLKCLENVRKIQGDGAALQEKLCATYKLCHPEELVLLGHSLGIPWAPLSSCPSQALQLAGCLSQLHSGLFLYQGLLQALEGISPELGPTLDTLQLDVADFATTIWQQMEELGMAPALQPTQGAMPAFASAFQRRAGGVLVASHLQSFLEVSYRVLRHLAQP
11 | 7.2 nM | rHSA/G-CSF mutant L108I (ligand, expressed in Pichia pastoris) [not shown - about 600 residues]TPLGPASSLPQSFLLKCLEQVRKIQGDGAALQEKLCATYKLCHPEELVLLGHSLGIPWAPLSSCPSQALQLAGCLSQLHSGLFLYQGLLQALEGISPELGPTLDTLQIDVADFATTIWQQMEELGMAPALQPTQGAMPAFASAFQRRAGGVLVASHLQSFLEVSYRVLRHLAQP
12 | 1.5 nM | rHSA/G-CSF mutant Q120K (ligand, expressed in Pichia pastoris) [not shown - about 600 residues]TPLGPASSLPQSFLLKCLEQVRKIQGDGAALQEKLCATYKLCHPEELVLLGHSLGIPWAPLSSCPSQALQLAGCLSQLHSGLFLYQGLLQALEGISPELGPTLDTLQLDVADFATTIWQKMEELGMAPALQPTQGAMPAFASAFQRRAGGVLVASHLQSFLEVSYRVLRHLAQP
13 | 3.4 nM | rHSA/G-CSF mutant Q11N (ligand, expressed in Pichia pastoris) [not shown - about 600 residues]TPLGPASSLPNSFLLKCLEQVRKIQGDGAALQEKLCATYKLCHPEELVLLGHSLGIPWAPLSSCPSQALQLAGCLSQLHSGLFLYQGLLQALEGISPELGPTLDTLQLDVADFATTIWQQMEELGMAPALQPTQGAMPAFASAFQRRAGGVLVASHLQSFLEVSYRVLRHLAQP
14 | 1.1 nM | rHSA/G-CSF mutant S12T (ligand, expressed in Pichia pastoris) [not shown - about 600 residues]TPLGPASSLPQTFLLKCLEQVRKIQGDGAALQEKLCATYKLCHPEELVLLGHSLGIPWAPLSSCPSQALQLAGCLSQLHSGLFLYQGLLQALEGISPELGPTLDTLQLDVADFATTIWQQMEELGMAPALQPTQGAMPAFASAFQRRAGGVLVASHLQSFLEVSYRVLRHLAQP
15 | 0.9 nM | rHSA/G-CSF mutant P10K (ligand, expressed in Pichia pastoris) [not shown - about 600 residues]TPLGPASSLKQSFLLKCLEQVRKIQGDGAALQEKLCATYKLCHPEELVLLGHSLGIPWAPLSSCPSQALQLAGCLSQLHSGLFLYQGLLQALEGISPELGPTLDTLQLDVADFATTIWQQMEELGMAPALQPTQGAMPAFASAFQRRAGGVLVASHLQSFLEVSYRVLRHLAQP
16 | 17.1 nM | rHSA/G-CSF mutant L41I (ligand, expressed in Pichia pastoris) [not shown - about 600 residues]TPLGPASSLPQSFLLKCLEQVRKIQGDGAALQEKLCATYKICHPEELVLLGHSLGIPWAPLSSCPSQALQLAGCLSQLHSGLFLYQGLLQALEGISPELGPTLDTLQLDVADFATTIWQQMEELGMAPALQPTQGAMPAFASAFQRRAGGVLVASHLQSFLEVSYRVLRHLAQP
17 | 1.6 nM | rHSA/G-CSF mutant S7T (ligand, expressed in Pichia pastoris) [not shown - about 600 residues]TPLGPATSLPQSFLLKCLEQVRKIQGDGAALQEKLCATYKLCHPEELVLLGHSLGIPWAPLSSCPSQALQLAGCLSQLHSGLFLYQGLLQALEGISPELGPTLDTLQLDVADFATTIWQQMEELGMAPALQPTQGAMPAFASAFQRRAGGVLVASHLQSFLEVSYRVLRHLAQP
18 | 1.2 nM | rHSA/G-CSF mutant P2K (ligand, expressed in Pichia pastoris) [not shown - about 600 residues]TKLGPASSLPQSFLLKCLEQVRKIQGDGAALQEKLCATYKLCHPEELVLLGHSLGIPWAPLSSCPSQALQLAGCLSQLHSGLFLYQGLLQALEGISPELGPTLDTLQLDVADFATTIWQQMEELGMAPALQPTQGAMPAFASAFQRRAGGVLVASHLQSFLEVSYRVLRHLAQP
19 | 23.5 nM | rHSA/G-CSF mutant L35I + L41I (ligand, expressed in Pichia pastoris) [not shown - about 600 residues]TPLGPASSLPQSFLLKCLEQVRKIQGDGAALQEKICATYKICHPEELVLLGHSLGIPWAPLSSCPSQALQLAGCLSQLHSGLFLYQGLLQALEGISPELGPTLDTLQLDVADFATTIWQQMEELGMAPALQPTQGAMPAFASAFQRRAGGVLVASHLQSFLEVSYRVLRHLAQP
